Measurements taken from US20050002904A1 (published 2005).

Key:
Experiment in all cases: solid-phase ligand binding ELISA, integrin immobilized
soluble α2β1 integrin = soluble α2β1 integrin (UniProt P17301 30-1132; P05556)
soluble α5β1 integrin = target: T1, soluble α5β1 integrin (UniProt P08648; P05556)
T1 construct: also called α5β1 integrin heterodimer

soluble αvβ5 integrin = soluble αvβ5 integrin (UniProt P06756 31-992; P18084 24-719)

Measured: binding result

Chain of soluble α2β1 integrin (P17301 30-1132, chain 1 of 2): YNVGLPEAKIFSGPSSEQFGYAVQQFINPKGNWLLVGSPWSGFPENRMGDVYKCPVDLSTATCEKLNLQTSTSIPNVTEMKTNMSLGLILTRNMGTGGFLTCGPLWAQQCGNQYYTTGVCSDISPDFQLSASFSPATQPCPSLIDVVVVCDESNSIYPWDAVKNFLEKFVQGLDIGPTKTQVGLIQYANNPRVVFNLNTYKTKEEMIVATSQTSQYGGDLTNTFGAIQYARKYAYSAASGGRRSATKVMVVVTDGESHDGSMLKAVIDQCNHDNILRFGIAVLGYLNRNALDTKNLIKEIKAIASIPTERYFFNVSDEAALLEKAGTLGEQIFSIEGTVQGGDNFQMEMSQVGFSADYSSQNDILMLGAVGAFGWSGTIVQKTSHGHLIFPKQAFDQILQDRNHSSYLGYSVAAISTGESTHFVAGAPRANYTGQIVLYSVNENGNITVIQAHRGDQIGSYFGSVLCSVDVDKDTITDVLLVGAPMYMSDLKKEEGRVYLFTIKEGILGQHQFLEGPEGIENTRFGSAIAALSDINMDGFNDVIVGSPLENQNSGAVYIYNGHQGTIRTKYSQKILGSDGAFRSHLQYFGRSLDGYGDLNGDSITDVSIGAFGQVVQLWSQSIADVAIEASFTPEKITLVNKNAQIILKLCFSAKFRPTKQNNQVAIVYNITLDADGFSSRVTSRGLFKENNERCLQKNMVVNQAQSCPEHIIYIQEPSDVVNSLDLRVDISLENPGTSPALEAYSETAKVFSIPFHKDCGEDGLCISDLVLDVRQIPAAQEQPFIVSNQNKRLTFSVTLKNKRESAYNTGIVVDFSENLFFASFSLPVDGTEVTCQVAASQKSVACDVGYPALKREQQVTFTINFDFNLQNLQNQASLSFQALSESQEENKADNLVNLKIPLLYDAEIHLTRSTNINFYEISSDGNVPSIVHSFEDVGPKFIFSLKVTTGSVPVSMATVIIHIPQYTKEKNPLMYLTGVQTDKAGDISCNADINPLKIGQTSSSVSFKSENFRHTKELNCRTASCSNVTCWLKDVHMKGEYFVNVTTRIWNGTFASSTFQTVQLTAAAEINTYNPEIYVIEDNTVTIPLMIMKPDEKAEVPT
Chain of soluble α2β1 integrin (P05556 21-728, chain 2 of 2, further chain): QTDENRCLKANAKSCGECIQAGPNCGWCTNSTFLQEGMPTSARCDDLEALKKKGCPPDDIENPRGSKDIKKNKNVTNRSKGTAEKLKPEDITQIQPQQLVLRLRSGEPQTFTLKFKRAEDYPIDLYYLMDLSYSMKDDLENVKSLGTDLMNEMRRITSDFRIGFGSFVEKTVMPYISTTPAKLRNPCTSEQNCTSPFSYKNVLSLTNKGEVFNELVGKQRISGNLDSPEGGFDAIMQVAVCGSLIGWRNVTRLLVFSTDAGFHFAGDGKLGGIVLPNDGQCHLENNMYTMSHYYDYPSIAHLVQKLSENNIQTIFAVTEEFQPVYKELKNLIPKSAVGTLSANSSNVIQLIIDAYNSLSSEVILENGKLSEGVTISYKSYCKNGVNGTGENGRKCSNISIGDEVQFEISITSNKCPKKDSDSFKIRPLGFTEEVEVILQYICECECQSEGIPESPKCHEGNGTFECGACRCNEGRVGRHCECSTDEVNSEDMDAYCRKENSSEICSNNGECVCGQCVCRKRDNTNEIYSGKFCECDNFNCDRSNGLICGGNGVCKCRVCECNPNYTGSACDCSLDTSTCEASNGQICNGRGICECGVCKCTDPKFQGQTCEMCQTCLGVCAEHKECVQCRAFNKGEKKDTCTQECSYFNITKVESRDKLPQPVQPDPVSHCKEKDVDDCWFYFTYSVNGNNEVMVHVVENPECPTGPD
Chain of soluble αvβ5 integrin (P06756 31-992, chain 1 of 2): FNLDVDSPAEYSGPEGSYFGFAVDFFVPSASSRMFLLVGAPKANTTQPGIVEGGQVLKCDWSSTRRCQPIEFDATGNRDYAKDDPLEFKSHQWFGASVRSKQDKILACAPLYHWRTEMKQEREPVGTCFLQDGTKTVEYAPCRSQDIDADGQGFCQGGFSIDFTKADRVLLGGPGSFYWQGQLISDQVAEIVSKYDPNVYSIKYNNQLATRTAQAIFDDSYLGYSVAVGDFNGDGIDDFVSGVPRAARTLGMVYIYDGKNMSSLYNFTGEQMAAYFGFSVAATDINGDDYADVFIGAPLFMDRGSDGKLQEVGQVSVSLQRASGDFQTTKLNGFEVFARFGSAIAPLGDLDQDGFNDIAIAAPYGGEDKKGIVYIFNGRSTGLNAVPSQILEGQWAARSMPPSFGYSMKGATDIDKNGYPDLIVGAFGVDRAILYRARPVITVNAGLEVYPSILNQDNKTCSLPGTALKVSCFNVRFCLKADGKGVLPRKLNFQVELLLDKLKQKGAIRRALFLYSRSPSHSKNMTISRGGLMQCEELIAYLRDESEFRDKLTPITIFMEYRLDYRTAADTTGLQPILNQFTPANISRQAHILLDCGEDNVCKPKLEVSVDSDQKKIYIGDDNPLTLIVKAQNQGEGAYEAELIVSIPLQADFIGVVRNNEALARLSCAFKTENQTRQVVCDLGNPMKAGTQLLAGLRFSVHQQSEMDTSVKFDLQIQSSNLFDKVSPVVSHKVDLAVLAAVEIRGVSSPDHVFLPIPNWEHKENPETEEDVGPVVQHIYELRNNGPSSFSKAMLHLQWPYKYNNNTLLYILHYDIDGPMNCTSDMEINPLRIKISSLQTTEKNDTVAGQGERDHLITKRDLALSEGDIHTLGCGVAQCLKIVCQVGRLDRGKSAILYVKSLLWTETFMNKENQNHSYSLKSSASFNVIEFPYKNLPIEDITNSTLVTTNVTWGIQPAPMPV
Chain of soluble αvβ5 integrin (P18084 24-719, chain 2 of 2, further chain): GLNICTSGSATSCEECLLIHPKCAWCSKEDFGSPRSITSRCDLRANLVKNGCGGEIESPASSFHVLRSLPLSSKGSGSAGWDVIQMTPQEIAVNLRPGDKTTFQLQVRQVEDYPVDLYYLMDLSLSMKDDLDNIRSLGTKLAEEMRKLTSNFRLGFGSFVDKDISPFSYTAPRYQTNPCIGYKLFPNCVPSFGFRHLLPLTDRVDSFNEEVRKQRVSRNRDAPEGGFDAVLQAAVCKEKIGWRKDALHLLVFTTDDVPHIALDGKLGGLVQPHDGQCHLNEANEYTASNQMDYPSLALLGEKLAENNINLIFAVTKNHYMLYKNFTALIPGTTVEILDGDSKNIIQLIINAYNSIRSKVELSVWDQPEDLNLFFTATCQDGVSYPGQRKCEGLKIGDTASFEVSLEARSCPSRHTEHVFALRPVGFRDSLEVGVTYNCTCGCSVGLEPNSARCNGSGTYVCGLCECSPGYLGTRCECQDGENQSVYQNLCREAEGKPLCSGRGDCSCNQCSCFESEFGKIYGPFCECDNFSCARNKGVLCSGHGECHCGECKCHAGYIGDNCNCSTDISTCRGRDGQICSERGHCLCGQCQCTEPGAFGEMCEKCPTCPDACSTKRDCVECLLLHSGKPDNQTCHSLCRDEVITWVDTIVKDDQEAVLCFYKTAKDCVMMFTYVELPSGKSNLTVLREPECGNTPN
Chain of soluble α5β1 integrin (P08648 42-995, chain 1 of 2): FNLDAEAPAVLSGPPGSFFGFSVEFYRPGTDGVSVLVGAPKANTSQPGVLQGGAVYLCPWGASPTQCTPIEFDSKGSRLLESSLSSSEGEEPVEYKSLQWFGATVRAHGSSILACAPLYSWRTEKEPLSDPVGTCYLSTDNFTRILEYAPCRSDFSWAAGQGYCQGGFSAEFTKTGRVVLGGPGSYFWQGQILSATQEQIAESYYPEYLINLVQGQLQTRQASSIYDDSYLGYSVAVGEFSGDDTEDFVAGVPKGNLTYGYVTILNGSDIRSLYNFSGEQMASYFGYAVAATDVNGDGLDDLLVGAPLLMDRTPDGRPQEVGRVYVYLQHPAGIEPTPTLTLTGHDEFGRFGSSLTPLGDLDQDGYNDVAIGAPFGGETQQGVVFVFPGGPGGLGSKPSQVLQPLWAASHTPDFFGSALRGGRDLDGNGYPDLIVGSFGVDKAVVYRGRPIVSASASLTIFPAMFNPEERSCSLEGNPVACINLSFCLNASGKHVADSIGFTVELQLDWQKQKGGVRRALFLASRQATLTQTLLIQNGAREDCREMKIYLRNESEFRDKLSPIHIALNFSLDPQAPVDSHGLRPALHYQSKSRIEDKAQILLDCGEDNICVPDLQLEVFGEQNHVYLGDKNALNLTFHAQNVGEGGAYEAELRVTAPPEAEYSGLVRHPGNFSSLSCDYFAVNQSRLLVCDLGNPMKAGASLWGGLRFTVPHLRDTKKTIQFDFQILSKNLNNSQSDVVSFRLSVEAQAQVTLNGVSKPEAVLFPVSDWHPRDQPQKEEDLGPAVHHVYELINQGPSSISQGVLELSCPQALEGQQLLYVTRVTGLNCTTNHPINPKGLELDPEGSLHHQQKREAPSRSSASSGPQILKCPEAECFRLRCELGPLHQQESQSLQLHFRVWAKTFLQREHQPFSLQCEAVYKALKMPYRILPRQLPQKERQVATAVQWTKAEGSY
Chain of soluble α5β1 integrin (P05556 21-728, chain 2 of 2, further chain): as the sequence (P05556 21-728, chain 2 of 2, further chain) above

B1: GST alone (other)
chain: not shown
notes: Control ligand in the solid-phase assay
no binding (tested: 50-350 ng per well): soluble α2β1 integrin | soluble α5β1 integrin | soluble αvβ5 integrin
